Test results from publication PMC13541613.
The list shows a part of the results, in another mix than the full data. At the low end of the ranking the order means little.

target: ZNF721 DBD2 (UniProt Q8TF20-2); assay: HT-SELEX; conditions: 20 mM HEPES pH 7, 140 mM KCl, 5 mM NaCl, 1 mM K2HPO4, 2 mM MgSO4, 100 uM EGTA, ZnSO4, 0.1% Tween20; room temperature, 1 h; high values mean tight binding; double strand, one strand shown

| Sequence | binding signal (relative 10-mer count) |
| --- | --- |
| AAGCTATACC | 0.000839 |
| ATGTGTATGA | 0.0018 |
| CCCCCCCCCC | 0.000839 |
| AGCTTCTTTC | 0.000839 |
| CCCCGACCCC | 0.000959 |
| AGGTATGAAG | 0.000719 |
| AGTATGAAGC | 0.000599 |
| CCCGCTCCCC | 0.000959 |
| CCCAGCCCCC | 0.000599 |
| ACTTCATACT | 0.000479 |
| CCCCCGGCCC | 0.000719 |
| GAAGTGTATC | 0.000839 |
| CCCCGGCCCC | 0.00036 |
| ACCCGCCCCC | 0.000719 |
| ACTTCATACC | 0.000479 |
| CCCACCAACC | 0.00563 |
| CTTCATACCA | 0.000959 |
| ATGAAGTGTA | 0.000599 |
| CCCCTGCCCC | 0.000959 |

| Sequence | binding signal (relative 10-mer count) |
| --- | --- |
| ATACACTTCA | 0.00036 |
| CCATCCCACC | 0.00575 |
| AAGAAGCTAT | 0.00036 |
| CCTCCCCGCC | 0.00923 |
| CCCGCCCGCC | 0.000479 |
| AGCTTCATAC | 0.00012 |
| CCACCTCCCA | 0.00384 |
| AAAGCTATAC | 0.00036 |
| CGCCCCCCCC | 0.000959 |
| CTTCATACCC | 0.000599 |
| ATGTATGAAG | 0.000839 |
| AAAAAAGCAT | 0.067 |
| CGCCGCCCCC | 0.000719 |
| GAAGCTATAC | 0.00024 |
| CCCCAGCCCC | 0.0018 |
| ACTTCATACA | 0.000839 |
| GCTTCATACC | 0.00036 |
| CCAGCCCCCC | 0.000959 |
| CGGTATGAAG | 0.000479 |
